# Experimental data reported in the supplement of paper PMC8728848.
# Some of the results follow.
# B1: Cohesin-hDECTIN-1 (Homo sapiens) (protein)
# chain: LDITSHHHHHHDDLDAVRIKVDTVNAKPGDTVRIPVRFSGIPSKGIANCDFVYSYDPNVLEIIEIEPGDIIVDPNPDKSFDTAVYPDRKIIVFLFAEDSGTGAYAITKDGVFATIVAKVKEGAPNGLSVIKFVEVGGFANNDLVEQKTQFFDGGVNVGDTTEPATPTTPVTTPTTTDDLDAASSSPCPPNWIIYEKSCYLFSMSLNSWDGSKRQCWQLGSNLLKIDSSNELGFIVKQVSSQPDNSFWIGLSRPQTEVPWLWEDGSTFSSNLFQIRTTATQENPSPNCVWIHVSVIYDQLCSVPSYSICEKKFM
# Tests used:
# Assay in all cases: glycan array binding signal (z-score within array); higher = stronger binding
# Settings in all cases: glycan notation: IUPAC condensed, linker removed
# [1] = molecular target: Gal(b1-4)GlcNAc(b1-2)Man(a1-3)[Gal(b1-4)GlcNAc(b1-2)Man(a1-6)]Man(b1-4)GlcNAc(b1-4)[Fuc(a1-6)]GlcNAc
# In short: (§1)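 Glycan array binding is given as a within-array Z-score, which can be read as non-binding when negative. The arrays, 3228 of them, came from the Consortium for Functional Glycomics database and were retained only where the protein sequence was available. Z-scores were averaged across arrays of the same protein sequence at different concentrations or buffers and across linkers.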
# [2] = molecular target: Gal(b1-4)GlcNAc(b1-2)Man(a1-3)[Gal(b1-4)GlcNAc(b1-2)Man(a1-6)][Gal(b1-4)GlcNAc(b1-4)]Man(b1-4)GlcNAc(b1-4)[Fuc(a1-6)]GlcNAc
# In short: as §1
# [3] = molecular target: Gal(b1-4)GlcNAc(b1-2)Man(a1-3)[Gal(b1-4)GlcNAc(b1-2)Man(a1-6)][GlcNAc(b1-4)]Man(b1-4)GlcNAc(b1-4)[Fuc(a1-6)]GlcNAc
# In short: as §1
# [4] = molecular target: Gal(b1-4)GlcNAc(b1-2)Man(a1-3)[GlcNAc(b1-2)Man(a1-6)]Man(b1-4)GlcNAc(b1-4)GlcNAc
# In short: as §1
# [5] = molecular target: Gal(b1-4)GlcNAc(b1-2)Man(a1-3)[GlcNAc(b1-4)][Gal(b1-4)GlcNAc(b1-2)Man(a1-6)]Man(b1-4)GlcNAc(b1-4)GlcNAc
# In short: as §1
# [6] = molecular target: Gal(b1-4)GlcNAc(b1-2)Man(a1-3)[Man(a1-6)]Man(b1-4)GlcNAc(b1-4)GlcNAc
# In short: as §1
# [7] = molecular target: Gal(b1-4)GlcNAc(b1-2)Man(a1-6)Man(b1-4)GlcNAc(b1-4)GlcNAc
# In short: as §1
# [8] = molecular target: Gal(b1-4)GlcNAc(b1-2)Man(a1-6)[GlcNAc(b1-2)Man(a1-3)]Man(b1-4)GlcNAc(b1-4)GlcNAc
# In short: as §1
# [9] = molecular target: Gal(b1-4)GlcNAc(b1-2)Man(a1-6)[Man(a1-3)]Man(b1-4)GlcNAc(b1-4)GlcNAc
# In short: as §1
# [10] = molecular target: Gal(b1-4)GlcNAc(b1-2)[Gal(b1-4)GlcNAc(b1-4)]Man(a1-3)[Gal(b1-4)GlcNAc(b1-2)Man(a1-6)]Man(b1-4)GlcNAc(b1-4)GlcNAc
# In short: as §1
# [11] = molecular target: Gal(b1-4)GlcNAc(b1-2)[Gal(b1-4)GlcNAc(b1-4)]Man(a1-3)[Gal(b1-4)GlcNAc(b1-2)[Gal(b1-4)GlcNAc(b1-6)]Man(a1-6)]Man(b1-4)GlcNAc(b1-4)GlcNAc
# In short: as §1
# [12] = molecular target: Gal(b1-4)GlcNAc(b1-2)[Gal(b1-4)GlcNAc(b1-4)]Man(a1-3)[GlcNAc(b1-4)][Gal(b1-4)GlcNAc(b1-2)Man(a1-6)]Man(b1-4)GlcNAc(b1-4)GlcNAc
# In short: as §1
# [13] = molecular target: Gal(b1-4)GlcNAc(b1-2)[Gal(b1-4)GlcNAc(b1-4)]Man(a1-3)[GlcNAc(b1-4)][Gal(b1-4)GlcNAc(b1-2)[Gal(b1-4)GlcNAc(b1-6)]Man(a1-6)]Man(b1-4)GlcNAc(b1-4)GlcNAc
# In short: as §1
# [14] = molecular target: Gal(b1-4)GlcNAc(b1-2)[Gal(b1-4)GlcNAc(b1-6)]Man(a1-6)[Gal(b1-4)GlcNAc(b1-2)Man(a1-3)]Man(b1-4)GlcNAc(b1-4)GlcNAc
# In short: as §1
# [15] = molecular target: Gal(b1-4)GlcNAc(b1-2)[Gal(b1-4)GlcNAc(b1-6)]Man(a1-6)[Gal(b1-4)GlcNAc(b1-2)Man(a1-3)]Man(b1-4)GlcNAc(b1-4)[Fuc(a1-6)]GlcNAc
# In short: as §1
# [16] = molecular target: Gal(b1-4)GlcNAc(b1-2)[Gal(b1-4)GlcNAc(b1-6)]Man(a1-6)[GlcNAc(b1-4)][Gal(b1-4)GlcNAc(b1-2)Man(a1-3)]Man(b1-4)GlcNAc(b1-4)GlcNAc
# In short: as §1
# [17] = molecular target: Gal(b1-4)GlcNAc(b1-2)[Gal(b1-4)GlcNAc(b1-6)]Man(a1-6)[GlcNAc(b1-4)][Gal(b1-4)GlcNAc(b1-2)[Gal(b1-4)GlcNAc(b1-4)]Man(a1-3)]Man(b1-4)GlcNAc(b1-4)[Fuc(a1-6)]GlcNAc
# In short: as §1
# [18] = molecular target: Gal(b1-4)GlcNAc(b1-3)Gal(b1-3)GalNAc
# In short: as §1
# [19] = molecular target: Gal(b1-4)GlcNAc(b1-3)Gal(b1-3)GlcNAc
# In short: as §1
binder,measurement,setting,value
B1,glycan array binding signal (z-score),[1],-0.466
same,glycan array binding signal (z-score),[2],-0.514
same,glycan array binding signal (z-score),[3],-0.463
same,glycan array binding signal (z-score),[4],-0.407
same,glycan array binding signal (z-score),[5],-0.486
same,glycan array binding signal (z-score),[6],-0.444
same,glycan array binding signal (z-score),[7],-0.378
same,glycan array binding signal (z-score),[8],-0.399
same,glycan array binding signal (z-score),[9],-0.377
same,glycan array binding signal (z-score),[10],-0.581
same,glycan array binding signal (z-score),[11],-0.507
same,glycan array binding signal (z-score),[12],-0.354
same,glycan array binding signal (z-score),[13],0.176
same,glycan array binding signal (z-score),[14],-0.001
same,glycan array binding signal (z-score),[15],0.659
same,glycan array binding signal (z-score),[16],-0.519
same,glycan array binding signal (z-score),[17],-0.228
same,glycan array binding signal (z-score),[18],-0.361
same,glycan array binding signal (z-score),[19],-0.261
